This is one part of the list.
Each sequence was assayed on PF3D7_0420300 AP2 domain 1 (GST-tagged) (assay: gcPBM binding intensity (ln(normalized median fluorescence intensity)); higher = stronger DNA binding).
Outline: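 Binding of GST-tagged P. falciparum DNA-binding domains, expressed in E. coli and used at about 25 μg on average, was carried out for 1 h in 1× PBS containing 1% milk, 0.2 mg/ml BSA, 0.5% salmon testes DNA and 0.03% Triton X-100. The target was an Agilent 4 × 180k array of primer-extended double-stranded 36-bp intergenic genomic probes plus negative controls, read with Alexa488 anti-GST antibody at 488 nm. Binding intensity is the highest Masliner-normalised natural-log median intensity across replicate spots of either probe orientation.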

Row | Sequence | gcPBM binding intensity (ln)
1 | TACGTTATGTTGAATAGTACAATTTGGTGAACAGGT [XGTACX_site1729] | 9.35
2 | GTCCTCATCCACTATGCACACAAAAAAGAAATACAC [CACACA_site9131] | 9.53
3 | TTTTTTTTTTTTTTTTGTACACAAATTTATTGTCTA [XGTACX_site2680] | 8.68
4 | CGAAGGTTTGGCCATGCATGTTATAAGAATATATGT [TGCATGCA_site441] | 9.25
5 | TCATTTTATTATTCTACACACTTATCTATAATTACA [CACACA_site6168] | 9.51
6 | TTACATGTACAAAAGTTGCACTTCATACACTTTTAT | 9.26
7 | ATTCTATATATGTGCACACAAAAGATATATATATAT [CACACA_site2124] | 9.53
8 | TCATTTCAATACACAAGTACGTATATGGTTATATTG [XGTACX_site6021] | 9.33
9 | AATATAAAATAATGCACACATAAACAAAAAATCAAA [CACACA_site1371] | 9.83
10 | TTTAATAATATAATGTGTACTTAAAAATTTATATAT [XGTACX_site5821] | 9.07
11 | TCATAAATTAATAATACATGCATAATATTAAAATGT [TGCATGCA_site5] | 9.26
12 | AAAAATATATAAGAGAGTACATAAAATAAATTAATT [XGTACX_site1534] | 9.31
13 | ATATATATAATATGTAGTACTTTCCTCTCAAATCAT [XGTACX_site7766] | 9.21
14 | ATCAAAAATATAAAAAATATAAACAATTTATTATCA [CACACA_negctrl_site768] | 9.13
15 | TTTACATCCAAAAACTGTACACTTATTTTATAATTC [XGTACX_site5332] | 9.2
16 | GAATCATATTTAAACACACATACATATATATATATA [CACACA_site3352] | 9.39
17 | AATAAGTAACAAAATACACACATATATATAATTATA [CACACA_site1837] | 9.85
18 | TTCATTATTATTAACATACACACGTGTTATATACAC [CACACA_site4112] | 9.47
19 | AAAAAATACAAGAAATGTACTCAAGCATATATTAAT [XGTACX_site3325] | 9.53

Row | Sequence | gcPBM binding intensity (ln)
20 | TTTTTACTATAATTAAAATTAACAAAAGAAAATGAT [GTGCAC_negctrl_site52] | 9.11
21 | TTCATTTTTTAAGCATCACACACGAAAGAACAAAGT [CACACA_site1122] | 9.62
22 | TAACCATACATACATACACACACACCCACATATATA [CACACA_site8951] | 10.1
23 | ATAAAAAACTCAGAGCGTACATAATTTTTTCTATTT [XGTACX_site2803] | 9.18
24 | TATATATTCAAATGTGCATGTAAAAAAAAAAAAAAG [TGCATGCA_site126] | 9.32
25 | CAGGAGAGTAAAAGAGTGCGAATTATTATTTTGGAG | 9.11
26 | AGACATTAATGAAGGTGTACATATATTTGACAGAAT [XGTACX_site655] | 9.45
27 | TCCCTAGTATACCTTAGTACATATATTATTTTGCAC [XGTACX_site2174] | 9.35
28 | GGCATATATATATGCACACATACATAAATACATGTG [CACACA_site5999] | 9.42
29 | TATATAATATAATTGACATGCAACCATTTTCGTGAA [TGCATGCA_site458] | 9.2
30 | TCATTCATATGTTACACACACACACGCACATAAAAA [CACACA_site7514] | 10.3
31 | AAGTTGGAAAGGTTATGTACTTATTTTTTAAAATAA [XGTACX_site204] | 8.98
32 | TTTTTTTTTCCCGTAAATATTGAGACAACCATAATG [CACACA_negctrl_site41] | 8.98
33 | TATTTTTATTTAGGACGTACAAAAATAAATCATATT [XGTACX_site1448] | 8.99
34 | TATAAATATTACGGTAGTACTATACATATATATAAT [XGTACX_site7442] | 9.31
35 | TTAGAAACATTGAAAGCATGCAATATTACTTTATAC [TGCATGCA_site522] | 9.2
36 | TCCTTATATTTGCACACACACACAAGAAAATGAAAA [CACACA_site6613] | 10.1
37 | CATATAAAAAGACACACACACACATATATATATATA [CACACA_site940] | 10
38 | TCTTTCTTATATTTATATAATTATATTTATTTTATA [GTGCAC_negctrl_site300] | 9.33

Row | Sequence | gcPBM binding intensity (ln)
39 | TTTAATTTGTTATACACACACAAAAAAAGTTATAAA [CACACA_site7779] | 9.45
40 | GGAATACAGGAAAAAAGTACAGAAAATGGAATATTA [XGTACX_site5053] | 9.31
41 | ATATAATGTTATAGAAGTACATGAAATACTTATTTA [XGTACX_site8850] | 9.18
42 | AACATTTATAAATATTGTACATATAGATTTATATAT [XGTACX_site2662] | 9.17
43 | AACAATATATTGAATAGTACATATATATAAACATAT [XGTACX_site2811] | 9.46
44 | AAAATAAAATAACGTTGTACAACATCATTTCTATAT [XGTACX_site5080] | 9.19
45 | GATTTACAACACGAACGTACAGAACAAAAAGGAAAA [XGTACX_site6501] | 9.4
46 | GTATCTCATTATTCGTGTACTAAACACATAAAAATA [XGTACX_site2262] | 9.16
47 | ATCTATATCTATAATACACACTAAAGTAACAGAATA [CACACA_site7370] | 9.51
48 | TGTTTAAAGGAAAAGGAGTAGTCTATTATATTATCT [CACACA_negctrl_site858] | 9.1
49 | TATAAAAATAAAAAAAGTACACATAAAAATATATAT [XGTACX_site5189] | 9.62
50 | AATGTAAAAGTAAACACACACATATATATATACATA [CACACA_site2484] | 9.89
51 | TATTGTATTTAATAAACACACAATATTAAAAATATA [CACACA_site4725] | 9.17
52 | CATATATACACATACACACACACACGGACACGCACA [CACACA_site6910] | 10.2
53 | ATACACATATATGTGTGTACTCACCTTTTAATATGA [XGTACX_site4349] | 9.41
54 | ATAAAAATTGATTATACACACGCGCACCCACAACAA [CACACA_site3536] | 9.78
55 | ATGTCAAATTTTTGTGCACACATATATAGTTATTAT [CACACA_site2242] | 9.69
56 | TATATATATCAGCAATGTACACAATGCATATTATAT [XGTACX_site4836] | 9.15
57 | TAAGGATAAATAAAATGAAATGAAATAAATAAATGA [XGTACX_negctrl_site539] | 9.24

From the supplement of paper PMC11417369
